Square brackets hold non-standard residues; d marks the D form. Peptide text beside a SMILES is read from it.
What follows are compounds tested on plasma PTH (assay: In vivo PTH lowering after IV bolus in isoflurane-anesthetized normal Sprague Dawley rats). Details: 0.5 mg/kg single IV administration.
Design: species or system rat
Experimental: The peptides were administered intravenously at a dose of 0.5 mg/kg into isoflurane-anesthetized normal Sprague Dawley rats. A control group of rats was treated with saline. Blood was drawn prior to dosing and every hour for 4 hours. Rats were maintained under isoflurane anesthesia for the entire study. […] Percent PTH reduction was calculated according to the following formula: AUCcmpd treated/AUCsaline control*100.
An intravenous (IV) bolus of saline was used as a control. Plasma (K2EDTA) PTH levels were assessed prior to dosing and 1, 2, 3 and 4 hours after dosing. Rats were maintained under isoflurane anesthesia for the entire study. […] In FIG. 2B, PTH is shown as percent of the baseline pre-dose value.
A series of compounds having an L-amino acid residue substituted for a D-amino acid residue were prepared. The compounds were administered as an IV bolus to normal Sprague Dawley rats at a dose of 0.5 mg/kg. An intravenous (IV) bolus of saline was used as a control. […] Rats were maintained under isoflurane anesthesia for the entire study.

| Compound | PTH-lowering activity in normal rats |
| --- | --- |
| CC(=O)N[C@H](CS)C(=O)N[C@H](CCCNC(=N)N)C(=O)N[C@H](CCCNC(=N)N)C(=O)N[C@H](C)C(=O)N[C@H](CCCNC(=N)N)C(=O)N[C@H](CCCNC(=N)N)C(=O)N[C@H](C)C(N)=O [SEQ ID NO: 14, Ac-crrarra-NH2] (Ac-[dC][dR][dR][dA][dR][dR][dA]-NH2) | inactive |

Same assay, conditions: Table 2; normal rats, AUC 1-4 h

| Compound | 0.5 mg/kg IV bolus % PTH AUC of saline control [%] |
| --- | --- |
| CC(=O)N[C@H](CS)C(=O)N[C@H](CCCNC(=N)N)C(=O)N[C@H](CCCNC(=N)N)C(=O)N[C@H](C)C(=O)N[C@H](CCCNC(=N)N)C(=O)N[C@H](CCCNC(=N)N)C(=O)N[C@H](C)C(N)=O [SEQ ID NO: 14, Ac-crrarra-NH2] (Ac-[dC][dR][dR][dA][dR][dR][dA]-NH2) | 130 |
| CC(=O)N[C@H](CS)C(=O)N[C@H](C)C(=O)N[C@H](CCCNC(=N)N)C(=O)N[C@H](CCCNC(=N)N)C(=O)N[C@H](C)C(=O)N[C@H](CCCNC(=N)N)C(=O)N[C@H](CCCNC(=N)N)C(N)=O [SEQ ID NO: 16, Ac-carrarr-NH2] (Ac-[dC][dA][dR][dR][dA][dR][dR]-NH2) | 105 |

Same assay, conditions: Table 3; normal rats, AUC 1-4 h

| Compound | 0.5 mg/kg IV bolus % PTH AUC of saline control [%] |
| --- | --- |
| Ac-dPen-rrrrrr-NH2 [SEQ ID NO: 33] | 9 |
| Mpa-rrrrrr-NH2 [SEQ ID NO: 31] | 2 |

Same assay, conditions: Table 4; normal rats, AUC 1-4 h

| Compound | 0.5 mg/kg IV bolus % PTH AUC of saline control [%] |
| --- | --- |
| CC(=O)N[C@@H](CSSC[C@H](N)C(=O)O)C(=O)N[C@H](C)C(=O)N[C@H](CCCNC(=N)N)C(=O)N[C@H](CCCNC(=N)N)C(=O)N[C@H](CCCNC(=N)N)C(=O)N[C@H](C)C(=O)N[C@H](CCCNC(=N)N)C(N)=O [SEQ ID NO: 34, Ac-C(C)arrrar-NH2] | 17 |

Same assay, conditions: Table 7; normal rats, AUC 1-4 h

| Compound | 0.5 mg/kg IV bolus % PTH AUC of saline control [%] |
| --- | --- |
| Ac-crrar-Nma-r-NH2 [SEQ ID NO: 119] | 101 |
| Ac-crr-Sar-rar-NH2 [SEQ ID NO: 116] | 141 |
| Ac-c-Nma-rrrar-NH2 [SEQ ID NO: 127] | 56 |
| Ac-c-Aib-rrr-Aib-r-NH2 [SEQ ID NO: 120] | 94 |
| Ac-c-Sar-rrrar-NH2 [SEQ ID NO: 128] | 50 |
| Ac-crr-dNle-rar-NH2 [SEQ ID NO: 138] | 3 |
| Ac-carrr-Aib-r-NH2 [SEQ ID NO: 124] | 68 |
| Ac-c-Nma-rrr-Nma-r-NH2 [SEQ ID NO: 118] | 105 |
| Ac-crr-Nma-rar-NH2 [SEQ ID NO: 121] | 86 |
| Ac-c-Aib-rrrar-NH2 [SEQ ID NO: 123] | 70 |
| Ac-crr-dNva-rar-NH2 [SEQ ID NO: 137] | 3 |
| Ac-carrr-Nma-r-NH2 [SEQ ID NO: 122] | 74 |
| Ac-carrr-Sar-r-NH2 [SEQ ID NO: 117] | 111 |
| Ac-carrr-Nle-r-NH2 [SEQ ID NO: 129] | 64 |
| Ac-crrar-Sar-r-NH2 [SEQ ID NO: 126] | 62 |
| Ac-c-Sar-rrr-Sar-r-NH2 [SEQ ID NO: 125] | 65 |

Same assay, conditions: Table 8; compound dosed at 10 mg/kg (~equivalent molarity to 0.5 mg/kg non-PEGylated peptide), normal rats

| Compound | % PTH AUC of saline control [%] |
| --- | --- |
| Ac-c(C-PEG20)rrrrrr-NH2 [SEQ ID NO: 143] | 25 |

Same assay, conditions: Table 8; compound dosed at 20 mg/kg (~equivalent molarity to 0.5 mg/kg non-PEGylated peptide), normal rats

| Compound | % PTH AUC of saline control [%] |
| --- | --- |
| Ac-c(C-PEG40)rrrrrr-NH2 [SEQ ID NO: 144] | 15 |

Same assay, conditions: Table 8; normal rats, AUC 1-4 h

| Compound | 0.5 mg/kg IV bolus % PTH AUC of saline control [%] |
| --- | --- |
| Ac-c(dHcy)arrrar-NH2 [SEQ ID NO: 139] | 32 |

These compounds were tested on rat peritoneal mast cells (assay: In vitro histamine induction in rat peritoneal mast cells). Details: not given.
Format: cell-based
Experimental: To further evaluate the relationship between compound structure and histamine release, a series of compounds was prepared and assessed for their ability to trigger induction of histamine in an in vitro assay using rat peritoneal mast cells. In this assay, compounds are incubated at 10 μM for 15 minutes at 37° C. with cells isolated from peritoneal lavage of SD rats. Following incubation, cell medium is collected and histamine is determined.
Accordingly, and as can be appreciated in view of the PTH data and the histamine data described hereinabove, in one embodiment, a compound that has activity to decrease PTH level in a subject in the absence of a histamine response is contemplated. In certain embodiments, absence of a histamine response intends a dose of the compound that produces a less than 10-fold, more preferably 8-fold, still more preferably 5-fold, and even still more preferably 3-fold, increase in histamine, measured in vitro in an assay as described herein, where the fold change is determined based on histamine levels before incubation with the compound and after 15 minutes incubation with compound. In a specific embodiment, the histamine response is determined in an in vitro assay using rat peritoneal mast cells isolated from peritoneal lavage of normal Sprague Dawley rats, and where the fold change is determined based on histamine levels before incubation with the compound and after 15 minutes incubation with compound. In the studies conducted herein, the in vitro evaluation of histamine release was performed using isolated rat peritoneal mast cells isolated by peritoneal lavage using cold HBSS+25 mM HEPES pH 7.4 containing heparin (5 u/mL). Cells were washed twice in stimulation buffer (HBSS+25 mM HEPES pH 7.4) and incubated with 10 μM of compound in stimulation buffer (HBSS+25 mM HEPES pH 7.4) for 15 minutes in a 96-well plate ([…]) at 37° C. Cell supernatant was analyzed for histamine using histamine EIA kit (Cayman #589651).
For in vitro evaluation of histamine release, isolated rat peritoneal mast cells were isolated by performing peritoneal lavage using cold HBSS+25 mM HEPES pH 7.4 containing heparin (5 u/mL). Cells were washed twice in stimulation buffer (HBSS+25 mM HEPES pH 7.4) and incubated with 10 μM of compound in stimulation buffer (HBSS+25 mM HEPES pH 7.4) for 15 minutes in a 96-well plate (10^6/well) at 37° C. Cell supernatant was analyzed for histamine using histamine EIA kit (Cayman #589651).

| Compound | Histamine in vitro Fold change of non-treated at 10 uM [fold] |
| --- | --- |
| CC(=O)N[C@H](CS)C(=O)N[C@H](C)C(=O)N[C@H](CCCNC(=N)N)C(=O)N[C@H](CCCNC(=N)N)C(=O)N[C@H](CCCCN)C(=O)N[C@H](C)C(=O)N[C@H](CCCNC(=N)N)C(N)=O [SEQ ID NO: 86, Ac-carrkar-NH2] (Ac-[dC][dA][dR][dR][dK][dA][dR]-NH2) | 1.0 |
| CC(=O)N[C@H](CS)C(=O)N[C@H](C)C(=O)N[C@H](CCCNC(=N)N)C(=O)N[C@H](CCCNC(=N)N)C(=O)N[C@H](CCCNC(=N)N)C(=O)N[C@H](C)C(=O)N[C@H](CCCCN)C(N)=O [SEQ ID NO: 70, Ac-carrrak-NH2] (Ac-[dC][dA][dR][dR][dR][dA][dK]-NH2) | 0.9 |
| CC(=O)N[C@H](CS)C(=O)N[C@H](CCCNC(=N)N)C(=O)N[C@H](CCCNC(=N)N)C(=O)N[C@H](C)C(=O)N[C@H](CCCNC(=N)N)C(=O)N[C@H](CCCNC(=N)N)C(=O)N[C@H](C)C(N)=O [SEQ ID NO: 14, Ac-crrarra-NH2] (Ac-[dC][dR][dR][dA][dR][dR][dA]-NH2) | 1.6 |
| CC[C@@H](C)[C@@H](NC(=O)[C@@H](CCCNC(=N)N)NC(=O)[C@@H](C)NC(=O)[C@@H](CCCNC(=N)N)NC(=O)[C@@H](CCCNC(=N)N)NC(=O)[C@@H](CS)NC(C)=O)C(=O)N[C@H](CCCNC(=N)N)C(N)=O [SEQ ID NO: 152, Ac-crrarir-NH2] (Ac-[dC][dR][dR][dA][dR][dI][dR]-NH2) | 4.1 |
| CC(=O)N[C@H](CS)C(=O)N[C@H](C)C(=O)N[C@H](CCCCN)C(=O)N[C@H](CCCCN)C(=O)N[C@H](CCCCN)C(=O)N[C@H](C)C(=O)N[C@H](CCCCN)C(N)=O [SEQ ID NO: 147, Ac-cakkkak-NH2] (Ac-[dC][dA][dK][dK][dK][dA][dK]-NH2) | 1.1 |
| CC(=O)N[C@H](CS)C(=O)N[C@H](CCCNC(=N)N)C(=O)N[C@H](CCCNC(=N)N)C(=O)N[C@H](CCCNC(=N)N)C(=O)N[C@H](CCCNC(=N)N)C(=O)N[C@H](C)C(=O)N[C@H](C)C(N)=O [SEQ ID NO: 146, Ac-crrrraa-NH2] (Ac-[dC][dR][dR][dR][dR][dA][dA]-NH2) | 1.9 |
| CC(=O)N[C@H](CS)C(=O)N[C@H](CCCNC(=N)N)C(=O)N[C@H](CCCNC(=N)N)C(=O)N[C@H](C)C(=O)N[C@H](CCCNC(=N)N)C(=O)N[C@H](CCC(N)=O)C(=O)N[C@H](CCCNC(=N)N)C(N)=O [SEQ ID NO: 150, Ac-crrarqr-NH2] (Ac-[dC][dR][dR][dA][dR][dQ][dR]-NH2) | 1.6 |
| CC(=O)N[C@H](CS)C(=O)N[C@H](CCCNC(=N)N)C(=O)N[C@H](CCCNC(=N)N)C(=O)N[C@H](C)C(=O)N[C@H](CCCNC(=N)N)C(=O)NCC(=O)N[C@H](CCCNC(=N)N)C(N)=O [SEQ ID NO: 149, Ac-crrarGr-NH2] (Ac-[dC][dR][dR][dA][dR]G[dR]-NH2) | 1.6 |
| CC(=O)N[C@H](CS)C(=O)N[C@H](C)C(=O)N[C@H](CCCNC(=N)N)C(=O)N[C@H](C)C(=O)N[C@H](CCCNC(=N)N)C(=O)N[C@H](C)C(=O)N[C@H](CCCNC(=N)N)C(N)=O [SEQ ID NO: 148, Ac-cararar-NH2] (Ac-[dC][dA][dR][dA][dR][dA][dR]-NH2) | 0.6 |
| CC(=O)N[C@H](CS)C(=O)N[C@H](C)C(=O)N[C@H](CCCCNC(=N)N)C(=O)N[C@H](CCCCNC(=N)N)C(=O)N[C@H](CCCCNC(=N)N)C(=O)N[C@H](C)C(=O)N[C@H](CCCNC(=N)N)C(N)=O [SEQ ID NO: 154, Ac-ca(dHar)(dHar)(dHar)ar-NH2] | 2.7 |
| CC(=O)N[C@H](CS)C(=O)N[C@H](CCCNC(=N)N)C(=O)N[C@H](CCCNC(=N)N)C(=O)N[C@H](C)C(=O)N[C@H](CCCNC(=N)N)C(=O)N[C@H](Cc1c[nH]cn1)C(=O)N[C@H](CCCNC(=N)N)C(N)=O [SEQ ID NO: 151, Ac-crrarhr-NH2] (Ac-[dC][dR][dR][dA][dR][dH][dR]-NH2) | 2.5 |
| CC(=O)N[C@H](CS)C(=O)N[C@H](C)C(=O)N[C@H](CCCNC(=N)N)C(=O)N[C@H](CCCNC(=N)N)C(=O)N[C@H](C)C(=O)N[C@H](CCCNC(=N)N)C(=O)N[C@H](CCCNC(=N)N)C(N)=O [SEQ ID NO: 16, Ac-carrarr-NH2] (Ac-[dC][dA][dR][dR][dA][dR][dR]-NH2) | 1.4 |

Source: patent US10280198B2, “Therapeutic agents for reducing parathyroid hormone levels” (KAI PHARMACEUTICALS, INC., priority 2009, dated 2019)
